Measured values: PubChem BioAssay AID488969 (Vanderbilt High Throughput Screening Facility, 2010)
Over roughly 110,000 compounds, “z-score” has its median near -0.1; the highest 2% begin near 2. This is one part of the list.

biological target: Metabotropic glutamate receptor 8 (Rattus norvegicus) (UniProt P70579); assay: rat mGluR8 modulators via GIRK flux, primary screen, cell-based, thallium flux, HTS (AID 488969); conditions: HEK293 rat mGluR8, GIRK (G protein-gated inwardly rectifying potassium channel) thallium flux, FluoZin2; at 10 µM; stronger effect = higher value; submaximal glutamate (EC20) added with thallium
Chain of UniProt P70579 (P70579 whole entry, looked up): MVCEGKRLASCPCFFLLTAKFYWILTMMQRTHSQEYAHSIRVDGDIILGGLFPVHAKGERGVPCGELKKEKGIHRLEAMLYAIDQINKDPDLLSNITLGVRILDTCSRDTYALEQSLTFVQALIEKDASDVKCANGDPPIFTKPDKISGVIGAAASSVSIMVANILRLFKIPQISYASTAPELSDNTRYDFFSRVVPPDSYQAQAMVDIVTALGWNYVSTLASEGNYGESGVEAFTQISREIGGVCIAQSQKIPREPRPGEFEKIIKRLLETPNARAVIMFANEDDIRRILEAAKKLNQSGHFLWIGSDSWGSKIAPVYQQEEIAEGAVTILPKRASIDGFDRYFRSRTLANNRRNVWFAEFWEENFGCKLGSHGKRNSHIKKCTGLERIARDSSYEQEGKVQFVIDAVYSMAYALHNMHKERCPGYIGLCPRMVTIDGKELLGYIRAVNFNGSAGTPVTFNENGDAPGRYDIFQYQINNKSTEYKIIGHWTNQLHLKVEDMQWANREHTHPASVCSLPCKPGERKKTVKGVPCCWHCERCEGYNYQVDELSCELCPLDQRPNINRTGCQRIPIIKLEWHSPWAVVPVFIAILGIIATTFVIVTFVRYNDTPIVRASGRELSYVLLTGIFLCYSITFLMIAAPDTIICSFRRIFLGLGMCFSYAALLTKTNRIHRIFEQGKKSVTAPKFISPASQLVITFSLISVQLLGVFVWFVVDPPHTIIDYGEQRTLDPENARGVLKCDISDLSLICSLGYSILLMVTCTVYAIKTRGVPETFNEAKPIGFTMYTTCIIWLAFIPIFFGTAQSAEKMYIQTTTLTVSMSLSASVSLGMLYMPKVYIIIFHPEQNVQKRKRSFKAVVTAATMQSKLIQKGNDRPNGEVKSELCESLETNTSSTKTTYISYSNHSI

Going from `CC(C)NS(=O)(=O)c1ccc2c(c1)NCC2` to `CC(=O)c1ccc(NS(=O)(=O)c2ccc3ccccc3c2)cc1`, the z-score falls from -0.137 to -0.168.

Compared with `CN(CC(=O)NCCC1=CCCCC1)S(=O)(=O)c1ccc2c(c1)c(=O)n(C)c(=O)n2C`, `O=C(COC(=O)/C=C/c1cccc(Cl)c1)NCCC1=CCCCC1` is lower in z-score: 0.178 for the first, -0.31 for the second.

Compared with `c1ccc2c(N3CCOCC3)nc(N3CCOCC3)nc2c1`, `CC(C)(C)c1nc(N2CCN(C(=O)c3ccco3)CC2)c2nnn(Cc3ccccc3)c2n1` is higher in z-score: 0.0684 for the first, 1.15 for the second.

Compared with `Cc1ccc(S(=O)(=O)N2CCN(S(=O)(=O)N(C)C)CC2)c(C)c1`, `Cc1ccc(NC(=O)[C@@H]2CCCN2S(=O)(=O)c2ccccc2C(F)(F)F)cc1S(=O)(=O)N1CCOCC1` is lower in z-score: -0.000969 for the first, -0.247 for the second.

First: CC(=O)NC1(C(F)(F)F)NC(=O)N(CC(C)C)C1=O (centres undefined)
Second: COc1cccc(NC(=S)NNC(=O)Cn2nc(C(F)(F)F)cc2C)c1
The z-score of the first is lower: -0.417 for the first, 0.573 for the second.

Compared with `O=C(c1cnn2ccccc12)N1CCCc2ccccc21`, `O=C(NCC(c1cccnc1)N1CCN(c2ccccc2F)CC1)c1cccc(Cl)c1` (centres undefined) is higher in z-score: 0.126 for the first, 0.459 for the second.

Going from `COC(=O)c1ccc(Oc2coc3cc(OCc4cnn(-c5ccccc5)c4)ccc3c2=O)cc1` to `COc1ccc(C(C)=O)cc1CSc1nc2ccccc2c(=O)n1-c1cccc(C)c1`, the z-score falls from -0.142 to -0.349.

Compared with `COC1(OC)N=C(N)C2(C#N)C(c3ccc(C)cc3)C12C#N` (centres undefined), `CCOC(=O)C1CCN(C(=O)c2ccc(OC)cc2OC)CC1` is lower in z-score: 0.308 for the first, -0.174 for the second.

Going from `Cn1cc(Cl)c(-c2nc3ccccc3[nH]2)n1` to `O=C(Cn1ncnn1)OCc1ccccc1Cl`, the z-score falls from 0.347 to -0.23.

Compared with `Cc1ccccc1-c1nc(CS(=O)(=O)CC(=O)N(C)C2CCCCC2)c(C)o1`, `Cc1onc(-c2ccccc2)c1C(=O)Nc1ccnn1C1CCCCC1` is higher in z-score: -0.373 for the first, 0.16 for the second.

First: COc1cccc(/C(O)=C2\C(=O)C(=O)N(c3ccccn3)C2c2cccc(OC)c2OC)c1 (centres undefined)
Second: CCOc1ccccc1C1CC(=O)Nc2cc(OC)c(OC)c(OC)c21 (centres undefined)
The z-score of the first is lower: -0.797 for the first, -0.0346 for the second.

Going from `CC(C)NC(=O)C1CCCN(c2nnc(-n3cccc3)s2)C1` (centres undefined) to `Cn1c(Cc2csc(N)n2)nnc1SCC(=O)NC1CCCCC1`, the z-score falls from 0.428 to 0.186.

First: O=C(NCCOC(=O)c1ccc(C(=O)OCCNC(=O)c2ccccc2)o1)c1ccccc1
Second: Cc1ccc(/C=C(\NC(=O)c2ccccc2)C(=O)NC(Cc2ccccc2)C(=O)O)cc1 (centres undefined)
The z-score of the first is lower: -0.597 for the first, -0.0603 for the second.

Going from `CS/C(=N\S(=O)(=O)c1cccs1)Nc1ccc(N2CCOCC2)cc1` to `CC(C(=O)N1CCOCC1)c1ccc([N+](=O)[O-])cc1` (centres undefined), the z-score falls from 0.986 to 0.149.

First: Cc1cc(C=O)c(C)n1-c1sc2c(c1C(=O)O)CCCC2
Second: O=S1(=O)CCN2C(c3ccc4c(c3)CCCC4)=CSC2=N1
The z-score of the first is lower: -0.718 for the first, -0.133 for the second.

Going from `CC1CN(C(=O)COC(=O)c2ccc(N)c([N+](=O)[O-])c2)CC(C)O1` (centres undefined) to `CC1CN(CN2C(=O)c3ccccc3C2=O)CC(C)O1` (centres undefined), the z-score falls from 0.107 to -0.164.

Going from `COc1cccc(NC(=O)C2C3CCC4C(CCC32)C4(Cl)Cl)c1` (centres undefined) to `COc1ccc(NC(=O)C2C3CCC4C(CCC32)C4(Cl)Cl)cc1` (centres undefined), the z-score falls from 0.14 to -0.0986.

Compared with `CC(C)(C)c1ccccc1OCCOCCSc1ncccn1`, `Cc1cccnc1NCC(O)COc1ccccc1` (centres undefined) is higher in z-score: -0.0709 for the first, 0.357 for the second.

First: CCC(C)n1c(C)nc2c(c1=O)c1nc3ccccc3nc1n2CCC1=CCCCC1 (centres undefined)
Second: CCCn1c2ccccc2c2nnc(SCC(=O)Nc3nnc(CC(=O)OCC)s3)nc21
The z-score of the first is higher: -0.167 for the first, -0.216 for the second.

Going from `O=C(Cn1c(=O)c2c(ncn2Cc2ccccc2)n(Cc2ccccc2)c1=O)NC1CC1` to `Cn1c(=O)c2c(nc(CN3CCN(C(=O)c4ccco4)CC3)n2Cc2ccccc2)n(C)c1=O`, the z-score rises from -0.401 to 0.297.

First: CCCCOc1ccc(C(O)(CC)CCN2CCOCC2)cc1 (centres undefined)
Second: COc1ccc(OCCOCC(O)CN2CCOCC2)cc1 (centres undefined)
The z-score of the first is lower: -0.713 for the first, -0.0013 for the second.

Compared with `COc1ccc(C(=O)n2ccc(C)n2)cc1Br`, `COc1ccc2nc(SCC(=O)NN)cc(C)c2c1` is lower in z-score: 0.834 for the first, 0.0672 for the second.

Compared with `Clc1ccc(Cn2ncc3c(N4CCCCC4)ncnc32)cc1`, `FC(F)(F)c1ccc(N2CCN(c3ncnc4c3nnn4Cc3ccccc3Cl)CC2)cc1` is higher in z-score: -0.535 for the first, 0.952 for the second.

First: CCN1CCN(C(=O)c2cc3c(=O)n(C)c4ccccc4c3n2C)CC1
Second: Cn1c(=O)cc(OCC(=O)N2CCC(N3CCCCC3)CC2)c2ccccc21
The z-score of the first is lower: -0.301 for the first, 1.05 for the second.

Going from `O=c1[nH]c2ccc(NC(=S)Nc3ccc(Cl)cc3)cc2[nH]1` to `CCn1c(=O)cc(SCC(=O)Nc2ccc(Cl)cc2)c2ccccc21`, the z-score falls from 0.426 to -0.0948.

Going from `CCN(CC)C(=O)CSc1nnc(C2CCCCC2)o1` to `CCOC(=O)C(C(=O)Nc1nccs1)C1CCCCC1` (centres undefined), the z-score falls from 0.599 to -0.538.

First: Cc1ccc(-c2cc(C(=O)NCc3cnn(C)c3C)c3cc(Br)ccc3n2)cc1
Second: COc1cccc(CNC(=O)c2cc3c(C)nc4ccccc4c3o2)c1
The z-score of the first is lower: -0.453 for the first, -0.378 for the second.

First: O=C(CN1CCN(C(=O)c2ccccc2)CC1)Nc1ncc(Br)cc1Br
Second: O=C(c1cncc(Br)c1)N1CCN(c2ccc([N+](=O)[O-])cc2)CC1
The z-score of the first is lower: -0.408 for the first, -0.309 for the second.

Going from `O=[N+]([O-])c1cc2c(cc1/C=N\NS(=O)(=O)c1ccccc1)OCO2` to `O=C(Cc1ccc([N+](=O)[O-])cc1)NCc1ccc2c(c1)OCO2`, the z-score rises from -0.112 to -0.0836.

Going from `O=C(COC(=O)c1ccc(S(=O)(=O)NCc2ccco2)cc1)NC1CCCCCC1` to `NS(=O)(=O)c1ccc(CCNC(=O)c2ccc(S(=O)(=O)N3CCCCC3)cc2)cc1`, the z-score falls from -0.145 to -0.222.

First: N#CCCSCc1ccc2oc(C(=O)O)cc2c1
Second: O=C(N/N=C/c1ccncc1)c1cc2ccccc2o1
The z-score of the first is higher: 1.68 for the first, -0.224 for the second.

Going from `O=C(O)C1CC(=O)n2c(nc3ccccc32)S1` (centres undefined) to `O=C(CSc1nc2ccccc2c(=O)n1NC(=O)c1ccccc1)c1ccc(Cl)cc1`, the z-score falls from 0.555 to -0.559.

First: COc1ccc(NS(=O)(=O)c2ccc3oc4ccccc4c3c2)cn1
Second: Cc1cc(N=Cc2c(O)ccc3ccccc23)no1
The z-score of the first is higher: 0.829 for the first, 0.291 for the second.

First: CC(=O)Nc1sc(/C(C#N)=C\c2cccc(Cl)c2)nc1-c1ccc(C)cc1
Second: Cc1ccc(C(=O)Nc2cc(Cl)ccc2OC(=O)c2ccc(C)cc2)cc1
The z-score of the first is higher: -0.172 for the first, -0.214 for the second.

Compared with `O=C(CSc1nc2[nH]ncc2c(=O)n1-c1ccccc1Br)NCc1ccco1`, `N#Cc1c(NC(=O)CSc2n[nH]c(N)n2)oc(-c2ccccc2)c1-c1ccccc1` is lower in z-score: -0.293 for the first, -1.36 for the second.

First: Cc1cc(-c2nn(-c3ccccc3)cc2/C=C2\SC(N)=NC2=O)ccc1OC(C)C
Second: CCOc1ccccc1-c1nc(C(N)=O)c2[nH]c(=O)n(-c3cccc(C)c3)c2n1
The z-score of the first is higher: -0.0568 for the first, -1.43 for the second.

Going from `CC(C)(C)n1nnnc1C(c1cccs1)N(Cc1cccnc1)Cc1ccccc1Cl` (centres undefined) to `c1ccc(CCc2nc(-c3cccnc3)no2)cc1`, the z-score falls from 0.295 to -0.0676.

First: Cc1cccc(NC(=O)CSc2nc(N)cc(N)n2)c1
Second: COc1cccc(NC(=O)CSc2nc3ccccc3cc2Cc2ccccc2)c1
The z-score of the first is lower: -0.298 for the first, -0.102 for the second.

Compared with `Cc1ccccc1NC(=O)c1ccc(CN2CCC(Cc3ccccc3)CC2)cc1`, `CN(C)S(=O)(=O)N(CC(=O)N(Cc1ccccc1)Cc1ccccc1)c1ccccc1` is lower in z-score: 0.119 for the first, -0.385 for the second.

Going from `CCCC(=O)Nc1ccc(C)c(O)c1` to `COc1ccc2cnnc(SCC(=O)Nc3ccccc3)c2c1OC`, the z-score rises from -0.559 to -0.103.

First: Cc1ccc(NS(C)(=O)=O)c(C(=O)c2ccccc2)c1
Second: CC1=C(CC(=O)c2ccc(Cl)cc2)C(=O)c2ccccc2C1=O
The z-score of the first is higher: -0.253 for the first, -0.578 for the second.

Going from `Cc1ccc(Nc2c3c(nc4ncnn24)CCC3)cc1` to `Cc1ccc(/C=C/C2=NN(Cc3ccccc3)C(=O)CC2)cc1`, the z-score rises from -0.247 to -0.149.

First: COc1ccc(OC)c(/C=C2\SC(=S)N(Cc3cccnc3)C2=O)c1
Second: COc1ccc(OC)c(N2C(N)=NC(N)=NC23CCCC3)c1
The z-score of the first is lower: -0.477 for the first, 0.00339 for the second.

Going from `O=C(NC1CC1)C1CCN(c2ncnc3c2sc2cccc(F)c23)CC1` to `Cc1nn(C)cc1C(C(=O)NC1CCCCC1)N(C(=O)Cc1cccs1)c1ccc(C(C)C)cc1` (centres undefined), the z-score rises from -0.454 to -0.432.

First: O=C1CCCN1CCC1CCN(C(=S)Nc2ccc(F)cc2)CC1
Second: O=C(NCCCN1CCN(c2ccccc2F)CC1)Nc1ccc(F)cc1
The z-score of the first is lower: 0.218 for the first, 0.279 for the second.

Going from `COC(=O)c1sc(NC(=O)C2CCCO2)c(C(=O)OC)c1C` (centres undefined) to `COc1cc(C(=O)N[C@H](C(=O)NC2CCCCCC2)C(C)C)cc(OC)c1OC`, the z-score rises from -0.572 to -0.25.

First: CC(=O)Nc1cc(C(=O)N2CCc3ccccc3C2)ccc1Sc1ccc(F)cc1
Second: Cn1c(SCC(=O)N2c3ccccc3CCc3ccccc32)nnc1-c1cc2ccccc2cc1O
The z-score of the first is lower: -0.86 for the first, -0.13 for the second.

Going from `O=S(=O)(Cc1cc(Sc2ccccc2)nc(-c2ccccc2)n1)c1ccccc1` to `CCOC(=O)c1ccccc1NC(=O)CSc1nnc(COc2ccccc2C)n1C`, the z-score falls from -0.215 to -1.24.

Compared with `COCCOC(=O)C1=C(N)Oc2c(oc(CO)cc2=O)C1c1c(F)cccc1Cl` (centres undefined), `Cc1ccc(C2C(C#N)=C(N)Oc3c2sc2ccccc32)o1` (centres undefined) is higher in z-score: -1.24 for the first, -0.552 for the second.

Compared with `CCOc1ccc(CCNC(=O)COC(=O)c2nc3nc(C)cc(C)n3n2)cc1OCC`, `Cc1ccc(OCC(=O)N(C)Cc2ccccc2)c([N+](=O)[O-])n1` is higher in z-score: -0.947 for the first, -0.265 for the second.

Going from `Cn1c(N)c(C(=O)COC(=O)c2ccc(Cl)c(S(=O)(=O)N3CCCCC3)c2)c(=O)n(C)c1=O` to `Cn1c(N)c(C(=O)COC(=O)c2ccco2)c(=O)n(C)c1=O`, the z-score falls from 0.532 to -0.0655.

Compared with `Cc1ncc(CCl)c2c1OC(C)(C)OC2`, `CCOC(=O)CSC1=C(C#N)C(c2ccc3c(c2)OCO3)CC(=O)N1` (centres undefined) is lower in z-score: -0.259 for the first, -0.737 for the second.

Compared with `COc1ccc(-n2c3c(cc(C(=O)N4CCCCC4)c2=O)C(=O)CC(C)(C)C3)cc1`, `CN1CCN(NC(=O)c2ccc(Cl)cc2Cl)CC1` is higher in z-score: -0.305 for the first, 0.0866 for the second.

Compared with `O=C(NCC1CCCO1)C(c1cccnc1)N(C(=O)Cc1cccs1)c1ccccc1` (centres undefined), `COc1cc(C(=O)Nc2nc(-c3cccs3)cs2)cc(OC)c1OC` is lower in z-score: -0.165 for the first, -0.472 for the second.

`C=C(C)C1CC=C(CN2CC(C)OC(C)C2)CC1` (centres undefined) showed a z-score of -0.037.
